The source gives no read counts; variants with many changes may rest on few reads.

B1: LINE1-full (parent)
chain: UACGUAGGUGGUUUUCCCCUGAUAGUGCUAAGGGGGCCUGGAAGUUUGGACUGGGCAGAGCUCAACACAGCGUGGCAAAGUGGCUGUGGCUAGACUGCCUCUCUGGAUUCCUCGUCACUCAGCAGGGCAUCUCUGAGAGAAAUGCC

The variants in this series derive from B1. Nature of the series: self-cleavage, relative activity (ratio to wild type); higher = more cleavage; in vitro, sequencing; the parent is a self-cleaving ribozyme.
As to UACGUAGGUGGUUUUCCCCUGAUAGUGCUAAGGGGGCCUGGAAGUUUGGACUGGGCAGGGCUCAGCACAGCGUGGCAAAGUGGCUGUGGCUAGACUGCCUCUCUGGAUUCCUCGUCACUCAGCAGGGCAUCUCUGAGAGAAACGCC [A59G A65G U143C], the self-cleavage came out at 0.24.
The same measure for UACGUAGGUGGUUUUCCCCUGAUAGUGCUAAGGGGGCCUGGAAGUUUGGACUGGGCAAAGCUCAACACAGCGUGGCAAAGUGGCUGUGGCUAGACUGCCCCUCCGGAUUCCUCGUCACUCAGCAGGGCAUCUCUGAGGGAAAUGCC [G58A U100C U104C A138G]: 0.18; for UACGUAGGUGGUUUUCCCCUGAUAGUGCUAAGGGGGCCUGGAAGUUUGGACUGGGCAGGGCUCAGCACAGCGUGGCAAAGUGGCUGUGGCUAGACUGCCUCUCUGGAUUCCUCGUCACUCAGCAGGGCAUCUCUGAGAGGAAUGCC [A59G A65G A140G]: 0.08.
The same measure for UACGUAGGUGGUUUUCCCCUGAUAGUGCUAAGGGGGCCUGGAAGUUUGGACUGGGCAGGGCUCAACACAGCGUGGCGAAGCGGCUGUGGCUAGACUGCCUCUCUGGAUUCCUCGUCACUCAGCAGGGCAUCUCAGAGAGAAAUGCC [A59G A77G U81C U134A]: 0.
As to UACGUAGGUGGUUUUCCCCUGAUAGUGCUAAGGGGGCCUGGAAGUUUGGACUGGGCAUAGCUCGACACAGCGUGGCGAAGUGGCUGUGGCUAGACUGCCUCUCUGGAUUCCUCGUCACUCGGCAGGGCAUCUCUGAGAGAAAUGCC [G58U A64G A77G A121G], the self-cleavage worked out at 0.
Regarding UACGUAGGUGGUUUUCCCCUGAUAGUGCUAAGGGGGCCUGGAAGUUUGGACUGGGCAAAGCUCAACACAGCGUAGCAAAGUGGCUGUGGCUAGACUGCCUCUCUGGAUUCCUCGUCACACAGCAGGGCAUCUCUGAGAGAAAUGCC [G58A G74A U119A], the self-cleavage turned out to be 0.01.
In the case of UACGUAGGUGGUUUUCCCCUGAUAGUGCUAAGGGGGCCUGGAAGUUUGGACUGGGCUGAGCUCAACACAGCGUGGCAAAGUGGCUGUGGCUAGACAGCCUCUCUGGAUUCCUCGUCCCUCAGCAGGGCAUCACUGAGAGAAAUGCC [A57U U96A A117C U132A], the self-cleavage was determined as 1.16.
The same measure for UACGUAGGUGGUUUUCCCCUGAUAGUGCUAAGGGGGCCUGGAAGUUUGGACUGGGCUGAGCUCAACACAGCGUGGCAAAGUGGCUGUGGCUAGACUGCCUCUCUGGAUUCCUCGUCACUCAGCAGGGCAUCCCUGAGAGGAAUGCC [A57U U132C A140G]: 0.07.
The same measure for UACGUAGGUGGUUUUCCCCUGAUAGUGCUAAGGGGGCCUGGAAGUUUGGACUGGGCAUAGCUCAACACAGCGUGGCUAAGUGGCUGUGGCUAGACCGCCUCACUGGAUUCCUCGUCACUCAGCAGGGCAUCUCCGUGAGAAAUGCC [G58U A77U U96C U102A U134C A136U]: 0.06; for UACGUAGGUGGUUUUCCCCUGAUAGUGCUAAGGGGGCCUGGAAGUUUGGACUGGGCAGGGCUCAACACAGCGUGGCAUAGUGGCUGUGGCUAGACUGCCUCUCUGGAUUCCUCGUCACUCAGCAGGGCACCUCUGAGAGAAAUGCC [A59G A78U U130C]: 0.
The same measure for UACGUAGGUGGUUUUCCCCUGAUAGUGCUAAGGGGGCCUGGAAGUUUGGACUGGGCUGAGCUCAACACAGCGUGGCAAAGUGGCUGCGGCUAGACUGCUUCUCUGGAUUCCUCGUCACUCAGCAGGGCAUCUCUGAGAGGAAUGCC [A57U U87C C99U A140G]: 0.06; for UACGUAGGUGGUUUUCCCCUGAUAGUGCUAAGGGGGCCUGGAAGUUUGGACUGGGCAAAGCUCAACACUGCGUGGCAAAGUGGCUGUGGCUAGACUGCCUCUCUGGGUUCCUCGUCACUCAGCAGGGCAUCUCUGAGAGAAAUGCC [G58A A69U A107G]: 0.03; for UACGUAGGUGGUUUUCCCCUGAUAGUGCUAAGGGGGCCUGGAAGUUUGGACUGGGCAGGGCUCAACACAGCGUGGCAACGUGGCUGUGGCUAGACUGCCUCUCUGGAUUCCUCGUCACUCAGCAGGGCGUCUCUGAGAGAAAUGCC [A59G A79C A129G]: 0.
On to UACGUAGGUGGUUUUCCCCUGAUAGUGCUAAGGGGGCCUGGAAGUUUGGACUGGGCAGGGCUCAGCACAGCGUGGCAAAGUGGCAGUGGCUAGACUGCCUCUCUGGAUUCCUCGUCACUCAGCAGGGCAUCUCUGAGAGAAAUGCC [A59G A65G U85A], for which the self-cleavage is 0.
For UACGUAGGUGGUUUUCCCCUGAUAGUGCUAAGGGGGCCUGGAAGUUUGGACUGGGCAUAGCUCAACACAGCGUGGCAAAGUGGCUGUGGCUAGACUGCCCCUCUGGAUUCCUCGUCGCUCAGCAGGGCAUCUCUGAGAGAAAUGCC [G58U U100C A117G], the self-cleavage came out at 0.1.
The same measure for UACGUAGGUGGUUUUCCCCUGAUAGUGCUAAGGGGGCCUGGAAGUUUGGACUGGGCAGGGCUCUACACAGCGUGGCAAAGUGGCUGUGGCUAGACUGCCUCUCUGGAUUCCUCGUCACUCAGCAGGGCUUCUCUGAGAGAAAUGCC [A59G A64U A129U]: 0.07; for UACGUAGGUGGUUUUCCCCUGAUAGUGCUAAGGGGGCCUGGAAGUUUGGACUGGGCAGGGCUCAACACUGCGUGGCAAAGUGGCUGUGGCUAGACUGCCUCUCUGGAUUCCUCGUCACUCAGCAGGGCAUCUCUGAGAGAAACGCC [A59G A69U U143C]: 0.04.
Turning to UACGUAGGUGGUUUUCCCCUGAUAGUGCUAAGGGGGCCUGGAAGUUUGGACUGGGCAGCGCUCAACACAGCGUGGCAAAGUGGCUGUGGCUAGACUGCCUCUCUGGUUUCCUCGCCACUCAGCAGGGCAUCUCUGAGAGAAAUGCC [A59C A107U U115C], the self-cleavage worked out at 1.99.
The same measure for UACGUAGGUGGUUUUCCCCUGAUAGUGCUAAGGGGGCCUGGAAGUUUGGACUGGGCAGGGCUCAGCACAGCGUGGCAAAGUGGCUGUGGCUAGACUGCCUCCCUGGAUUCCUCGUCACUCAGCAGGGCAUCUCUGAGAGAAAUGCC [A59G A65G U102C]: 0; for UACGUAGGUGGUUUUCCCCUGAUAGUGCUAAGGGGGCCUGGAAGUUUGGACUGGGCAAAGCUCAACACUGCGUGGCAAAGUGGCUGUGGCUAGACCGCCUCUCUGGAUUCCUCGUCACUCAGCAGGGCAUCUCUGAGAGAUGUGCC [G58A A69U U96C A141U A142G]: 0.06; for UACGUAGGUGGUUUUCCCCUGAUAGUGCUAAGGGGGCCUGGAAGUUUGGACUGGGCAGGGCUCAUCACAGCGUGGCAAUGUGGCAGUGGCUAGACUGCCUCUCUGGAUUCCUCGUCACUCAGCAGGGCACCUCUGAGAGAAAUGCC [A59G A65U A79U U85A U130C]: 0.
Turning to UACGUAGGUGGUUUUCCCCUGAUAGUGCUAAGGGGGCCUGGAAGUUUGGACUGGGCAAAGCUCAACACAGCGUGGCAAAGUGGCUGUGGCUAGACUGCCUCCCUGGAUUCCUCGUCACUCUGCAGGGCAUCUCUGAGAGAAAUGCC [G58A U102C A121U], the self-cleavage was 0.02.
The same measure for UACGUAGGUGGUUUUCCCCUGAUAGUGCUAAGGGGGCCUGGAAGUUUGGACUGGGCAGGGCUCUACACAGCGUGGCAGAGUGGCUGUGGCUAGACUGCCUCCCUGGAUUCCUCGUCACUCAGCAGGGCAUCUCUGAGAGAUAUGCC [A59G A64U A78G U102C A141U]: 0.06.
Turning to UACGUAGGUGGUUUUCCCCUGAUAGUGCUAAGGGGGCCUGGAAGUUUGGACUGGGCAAAGCUCAACACAGCGUGGCAAAGUGGUUGUGGCUAGACUGCCUCUAUGGAUUCAUCGUCACUCAGCAGGGCAUCUCUGAGAGAAAUGCC [G58A C84U C103A C111A], the self-cleavage worked out at 0.02.
The same measure for UACGUAGGUGGUUUUCCCCUGAUAGUGCUAAGGGGGCCUGGAAGUUUGGACUGGGCAGGGCUCAACUCAGCGUGGCAAAGUAGCUGUGGCCAGACUGCCUCUCUGGAUUCCUUGUCACUCAGCAGGGCAUCUCUGAGAGAAAUGCC [A59G A67U G82A U91C C113U]: 0; for UACGUAGGUGGUUUUCCCCUGAUAGUGCUAAGGGGGCCUGGAAGUUUGGACUGGGCAGGGCUCAACCCAGCGUGGCAAAGUGGCUGUGGCUAGACUGCCUCUCUGGAUUCCUCGCCACUCAGCAGGGCAUCUCUGAGAGAGAUGCC [A59G A67C U115C A141G]: 0; for UACGUAGGUGGUUUUCCCCUGAUAGUGCUAAGGGGGCCUGGAAGUUUGGACUGGGCUGAGCUCAACACAGCGUGGCAAAGUGGCUGUGGCUAGACUGCCUCUCUGGACUCCUCGUCACUCAGCAGGGCAUCUCUGAGAGGAAUGCC [A57U U108C A140G]: 0.12.
As for UACGUAGGUGGUUUUCCCCUGAUAGUGCUAAGGGGGCCUGGAAGUUUGGACUGGGCAGGGCUCAGCACAGCGUGGCAAAGUGGCUGUGGCUAGACUGCCCCUCUGGAUUCCUCGUCACUCAGCAGGGCAUCUCUGAGAGAAAUGCC [A59G A65G U100C], the self-cleavage is 0.
The same measure for UACGUAGGUGGUUUUCCCCUGAUAGUGCUAAGGGGGCCUGGAAGUUUGGACUGGGCUGAGCUCAACACAGCGUGGCAAAGUGGCUGUGGCUAGACUGCCUCCCUGGAUUCCUCGUCACUCAGCAGGGCAUCUCCGAGAGAAAUGCC [A57U U102C U134C]: 0.07.
The same measure for UACGUAGGUGGUUUUCCCCUGAUAGUGCUAAGGGGGCCUGGAAGUUUGGACUGGGCAGGGCUCAGCACAGCGUGGCAGAGUGGCUGUGGCUAGACUGCCUCUCUGGAUUCCUCGUCACUCAGCAGGGCAUCUCUGAGAGAAAUGCC [A59G A65G A78G]: 0.33; for UACGUAGGUGGUUUUCCCCUGAUAGUGCUAAGGGGGCCUGGAAGUUUGGACUGGGCUGAGCUCAACACAGCGUGGCAAAGUGGCUGUGGCUAGACUGCCACUCUGGAUUCCUCGUCACUCAGCAGGGCAACUCUGAGAGAAAUGCC [A57U U100A U130A]: 0.08; for UACGUAGGUGGUUUUCCCCUGAUAGUGCUAAGGGGGCCUGGAAGUUUGGACUGGGCAUAGCUCAACACAGCGUGGCAAAGUGGCAGUGGCUAGACUGCCUCUCUGGAUUCCUCGUCACUCAGCAGGGCAUCUCAGAGAGAAAUGCC [G58U U85A U134A]: 0.03.
Consider UACGUAGGUGGUUUUCCCCUGAUAGUGCUAAGGGGGCCUGGAAGUUUGGACUGGGCAGGGCUCAACACAGCGUGGCAAAGUGGCUGUGGCUGGACUGCCUCUCUGGAUUCCCCGUCACUCAGCAGGGCAUCUCUGAGAGAAAUGCC [A59G A92G U112C], for which the self-cleavage is 0.2.
UACGUAGGUGGUUUUCCCCUGAUAGUGCUAAGGGGGCCUGGAAGUUUGGACUGGGCAGGGCUCUACACGGCGUGGCAAAGUGGCUGUGGCUAGACUGCCUCUCUGGAUUCCUCGUCACUCAGCAGGGCAUCUCUGAGAGAAAUGCC [A59G A64U A69G]: the self-cleavage was 0.
In the case of UACGUAGGUGGUUUUCCCCUGAUAGUGCUAAGGGGGCCUGGAAGUUUGGACUGGGCAGCGCUCAACACAGCGUGGCAAAGAGGCUGUGGCUAGACUGCCUCUCUGGAUUCCUCGUCACUCAGCAGGGCAUCUCUGAGAGAAACGCC [A59C U81A U143C], the self-cleavage stood at 1.21.
With UACGUAGGUGGUUUUCCCCUGAUAGUGCUAAGGGGGCCUGGAAGUUUGGACUGGGCAGGGCUCAACACAGCGUGGCAAAGUGGCUGUGGCUAGGCUGCCUCUCUGGAUUCCUCGUCACUCAGCGGGGCAUCUCUGAGAGAAAUGCC [A59G A94G A124G], the self-cleavage came out at 0.21.
As for UACGUAGGUGGUUUUCCCCUGAUAGUGCUAAGGGGGCCUGGAAGUUUGGACUGGGCAGGGCUCAACACAGCGUGGCAAUGUGGCUGCGGCUAGACUGCCUCUCUGGAUUCCUCGUCACUCUGCAGGGCAUCUCUGAGAGAAAUGCC [A59G A79U U87C A121U], the self-cleavage was 0.18.
Take UACGUAGGUGGUUUUCCCCUGAUAGUGCUAAGGGGGCCUGGAAGUUUGGACUGGGCAAAGCUCAACAUAGCGUGGCAGAGUGGCUGUGGCUAGACUGCCUCUCUGGAUUCCUCGUCACUCAGCAGGGCAUCUCUGAGAGAAAUGCC [G58A C68U A78G]: the self-cleavage was found to be 0.02.
The same measure for UACGUAGGUGGUUUUCCCCUGAUAGUGCUAAGGGGGCCUGGAAGUUUGGACUGGGCAGGGCUCAACACAGCGUGGCGAAGUGGCUGUGGCUAGACUGCCUCUCUGGAUUCCUCGUCACUCAGCGGGGCAUCUCUGAGAGAAAUGCC [A59G A77G A124G]: 0.
